Data as given in PubChem BioAssay AID686979 (National Center for Advancing Translational Sciences (NCATS), 2013).
“And” between values parts separate entries of the source, which are not always exact repeats. Equal entries are not always repeated. In all, about 420,000 compounds went through this assay and about 50,000 (12%) were called active. Inconclusive means that the source gave no clear call. Such entries were picked first, then a sample of the others. Calls follow the shape of the dose curve; as a rule, active = well fitted inhibition curve with a large enough effect; inconclusive = small, poorly fitted or top-dose-only effect; inactive = flat fitted curve, though single readings scatter. Potencies of inconclusive entries are left out as doubtful fits.

Assay: qHTS for Inhibitors of human tyrosyl-DNA phosphodiesterase 1 (TDP1): qHTS in cells in presence of CPT; also: nearly all actives have a fitted effect of over 55% in size
Settings: chicken DT40 Tdp1-/-;hTDP1 cells + 20 nM CPT, ATP luminescence, 48 h; activity change, negative = growth inhibition: at 46.2 µM (top of the series) unless noted
Procedure, shortened: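 Chicken DT40 Tdp1-/- cells complemented with human TDP1, 400 cells/well, exposed to compounds plus 20 nM camptothecin for at least 48 h at 37 C; viability read as ATP content by CellTiter-Glo luminescence.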
% is scaled to controls: 0 for no effect and ±100 for the full control effect; potency is read from the fitted curve at half-maximal effect; tags tell the direction and shape of the fitted curve.

**Q.** Which Potency does the source give for `COc1ccc(CCC(C)NCc2ccc(Cl)c(Cl)c2)cc1` (stereo unspecified) here?
**A.** The Potency was “inactive”.

**Q.** Which Potency does the source give for `CS(=O)(=O)N(CC(=O)NCCSc1ccc(Cl)cc1)c1ccc2c(c1)OCO2` here?
**A.** Its Potency is inconclusive [inhibitor, single point].

**Q.** Which Potency does the source give for `CCOc1ccccc1NC(=S)N1CCN(c2ccc(O)cc2)CC1` here?
**A.** The Potency was inconclusive [inhibitor, single point].

**Q.** With `COc1ccc(CNC(=S)NCc2ccc(F)cc2)cc1` as the molecule, how does the Potency read?
**A.** The Potency was “inactive”.

**Q.** Which Potency does the source give for `Cc1sc(NC(=O)CS(=O)(=O)c2ccccc2)c(C(N)=O)c1C` here?
**A.** Its Potency is inconclusive [inhibitor, single point].

**Q.** With `O=C(COC(=O)CSc1ccc(F)cc1)NC1CCCCCC1` as the molecule, how does the Potency read?
**A.** Its Potency is inconclusive [inhibitor, single point].

**Q.** With `COC(=O)Cn1cnc2c(nnn2Cc2ccc(Cl)cc2)c1=O` as the molecule, how does the activity change, negative = growth inhibition read?
**A.** The activity change, negative = growth inhibition was inconclusive: -30.1% [inhibitor].

**Q.** Which Potency does the source give for `CC(C)(C)c1ccc(CSc2nnc(-c3ccccn3)n2Cc2ccco2)cc1` here?
**A.** The Potency was inconclusive [inhibitor, single point].

**Q.** With `Cc1cc2c(cc3c(SCC(=O)Nc4cccc(Cl)c4C)nnc(C)n32)o1` as the molecule, how does the Potency read?
**A.** The Potency was inconclusive [inhibitor, single point].

**Q.** With `CCOC(=O)c1cnc2ccccc2c1Nc1cccc(OC)c1` as the molecule, how does the Potency read?
**A.** The Potency was inconclusive [inhibitor, single point].

**Q.** With `COc1cc(C(=O)NCCc2ccc3c(c2)OCO3)cc(OC)c1OC` as the molecule, how does the Potency read?
**A.** Its Potency is inconclusive [inhibitor, partial curve].

**Q.** Which Potency does the source give for `COCCNc1ncnc2c1ncn2[C@H]1CN(Cc2ccc(OC)cc2)C[C@@H](CO)O1` here?
**A.** Its Potency is “inactive”.

**Q.** With `CC(=O)Nc1ccc(NC(=O)c2ccccc2N(Cc2ccccc2)S(C)(=O)=O)cc1` as the molecule, how does the Potency read?
**A.** The Potency was “inactive”.

**Q.** With `O=c1[nH][nH]c(C(F)(F)F)c1/C=N/N1CCOCC1` as the molecule, how does the Potency read?
**A.** The Potency was “inactive”.

**Q.** Which Potency does the source give for `CNS(=O)(=O)c1cc(-c2nnc(Nc3cc(C)ccc3C)c3ccccc23)ccc1C` here?
**A.** The Potency was active: 20.6 µM.

**Q.** For `Cn1c(=O)n(CCc2ccccc2)c(=O)c2c1nc1n2CCCN1Cc1ccccc1`, which Potency is on record?
**A.** Its Potency is inconclusive [inhibitor, single point].

**Q.** With `O=CNc1cc(-c2ccc(C(=O)N3CCOCC3)cc2)cn2c(-c3ccc(F)cc3)cnc12` as the molecule, how does the Potency read?
**A.** Its Potency is active: 20.6 µM.

**Q.** With `COc1ccccc1N1CCN(C(=O)c2cnc(N3CCCCC3)c3ccccc23)CC1` as the molecule, how does the Potency read?
**A.** The Potency was active: 4.61 µM.

**Q.** With `Cc1ccccc1-c1cc(C(=O)NCc2ccc3c(c2)OCO3)n(CC2CC(c3cccnc3)=NO2)n1` (stereo unspecified) as the molecule, how does the Potency read?
**A.** The Potency was inconclusive [inhibitor, single point].

**Q.** Which Potency does the source give for `Cc1ccc(-c2nnc(SCC(=O)NCc3ccccc3)nc2-c2ccc(C)cc2)cc1` here?
**A.** Its Potency is inconclusive [inhibitor, single point].

**Q.** Which Potency does the source give for `COc1ccc(-n2cnc3cc(C(=O)NCC4CCCO4)ccc32)cc1` (stereo unspecified) here?
**A.** The Potency was “inactive”.

**Q.** With `COc1ccc(NC(=O)c2cc(N3C(=O)C4C5CCC(C5)C4C3=O)ccc2Cl)c(OC)c1` (stereo unspecified) as the molecule, how does the Potency read?
**A.** Its Potency is inconclusive [inhibitor, partial curve, poor fit].

**Q.** For `CSc1ccccc1CNc1nc(NCC2CC2)nc2ccsc12`, which Potency is on record?
**A.** The Potency was active: 14.6 µM.

**Q.** Which Potency does the source give for `CC(C)N1CCc2[nH]c(=S)[nH]c(=O)c2C1` here?
**A.** Its Potency is inconclusive [inhibitor, single point].

**Q.** Which Potency does the source give for `COc1ccc(/C=C/C(=O)Nc2ccc(Cl)c(Cl)c2)cc1` here?
**A.** Its Potency is inconclusive [inhibitor, single point].

**Q.** For `COc1ccc([C@H]2CC(=O)C=C(c3ccccc3Oc3ccccc3)C2)cc1`, which Potency is on record?
**A.** The Potency was inconclusive [inhibitor, single point].

**Q.** Which Potency does the source give for `COc1cc(-c2cc(NC=O)c3ncc(-c4ccc(C(C)=O)cc4)n3c2)ccc1O` here?
**A.** The Potency was active: 9.2 µM.

**Q.** For `Cc1cc(C(=O)COc2ccccc2[N+](=O)[O-])c(C)n1-c1cccc(S(=O)(=O)N2CCOCC2)c1`, which Potency is on record?
**A.** Its Potency is active: 16.4 µM.

**Q.** Which Potency does the source give for `CC(=O)Nc1cccc(NC(=O)CSc2ncc(C(=O)Nc3ccc(F)cc3)c(=O)n2C)c1` here?
**A.** Its Potency is active: 14.6 µM.

**Q.** With `COC(=O)c1c(OC)cc2c(c1C)Oc1c(Cl)c(O)c(Cl)c(C)c1C(=O)O2` as the molecule, how does the Potency read?
**A.** The Potency was inconclusive [inhibitor, single point].

**Q.** With `Cc1cc(-n2c(C)cc(C(=O)COC(=O)CN=C3NS(=O)(=O)c4ccccc43)c2C)no1` as the molecule, how does the Potency read?
**A.** Its Potency is “inactive”.

**Q.** For `CCCCn1c(NC(=O)c2ccccc2)c(C#N)c2nc3ccccc3nc21`, which Potency is on record?
**A.** The Potency was active: 25.9 µM.

**Q.** Which Potency does the source give for `CCOc1ccc(CCNC(=O)c2c(C)oc3ncn(C)c(=O)c23)cc1` here?
**A.** Its Potency is “inactive”.

**Q.** For `CCCCN1C(=O)C(=O)N(CC(=O)c2cc(C)n(-c3cc(C)on3)c2C)C1=O`, which Potency is on record?
**A.** The Potency was “inactive”.

**Q.** Which Potency does the source give for `CCCC(=O)Nc1ccc(Cl)c(NC(=O)CC)c1` here?
**A.** The Potency was inconclusive [inhibitor, single point].

**Q.** With `O=C1CC[C@@H](O)CCN1CC[C@H](Sc1ccc(Br)cc1)c1ccccc1` as the molecule, how does the Potency read?
**A.** Its Potency is active: 11.2 µM and active: 23.1 µM.

**Q.** For `Cc1nnc(SCCn2c(N3CCN(Cc4ccccc4)CC3)nc3c2c(=O)[nH]c(=O)n3C)s1`, which Potency is on record?
**A.** Its Potency is “inactive”.

**Q.** For `Cc1ccc(CNS(=O)(=O)c2ccc3c(c2)CCN3C(=O)C2CCC2)cc1`, which Potency is on record?
**A.** The Potency was inconclusive [inhibitor, single point].

**Q.** With `CC(C)CCOc1ccccc1Cn1c(=O)sc2ccccc21` as the molecule, how does the Potency read?
**A.** The Potency was inconclusive [inhibitor, single point].

**Q.** With `CCC(CO)NCc1ccc(OC2CCCC2)cc1` (stereo unspecified) as the molecule, how does the Potency read?
**A.** Its Potency is inconclusive [inhibitor, partial curve, poor fit].

**Q.** Which Potency does the source give for `OCC[C@@H]1C[C@H](O)[C@@H](O)[C@@]2(CCCO2)O1` here?
**A.** The Potency was “inactive”.

**Q.** For `O=C(Nc1sc2c(c1C(=O)O)CCCCC2)c1ccco1`, which Potency is on record?
**A.** The Potency was inconclusive [inhibitor, partial curve, poor fit].

**Q.** Which activity change, negative = growth inhibition does the source give for `Cc1cccc(-n2c(=O)c(C#N)cc3c(=O)n4ccccc4nc32)c1` here?
**A.** The activity change, negative = growth inhibition was inconclusive: -5.38% [inhibitor].

**Q.** With `O=C(Cn1cnc([N+](=O)[O-])n1)N/N=C/c1ccc2ccccc2c1` as the molecule, how does the Potency read?
**A.** The Potency was “inactive”.

**Q.** Which Potency does the source give for `Cc1ccc(Cl)cc1N1CCN(C(=O)c2ccc3nc(N4CCC(C)CC4)sc3c2)CC1` here?
**A.** Its Potency is active: 20.6 µM.

**Q.** With `N#C/C(=C/c1ccc(-c2ccc([N+](=O)[O-])cc2)o1)C(=O)Nc1nc(-c2cccs2)cs1` as the molecule, how does the Potency read?
**A.** Its Potency is inconclusive [inhibitor, partial curve, poor fit].
